Data as given in PubChem BioAssay AID1347120 (National Center for Advancing Translational Sciences (NCATS), 2019).
Among all 390,000 compounds or so, about 930 (0.24%) were called active. The shares of active, inactive and inconclusive entries below differ from those in the screen. The call rests on the fitted dose curve; in most records, active means well fitted activation curve with a large enough effect; inconclusive means small, poorly fitted or top-dose-only effect; inactive means no such curve, though single readings can be large or run the other way. Potencies beside an inconclusive call are fits to weak or partial responses and may not hold up.

Assay: qHTS for Suppressors of FUS Proteinopathy: Primary screen using FUS-linked yeast assay; further: nearly all actives have a fitted effect of over 55% in size;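 on growth rescue (activation): plate controls were DMSO vehicle for no effect and reference control for full effect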
Conditions: S. cerevisiae FUS-expressing, OD600, 24 h; Potency: growth rescue; growth rescue (activation): at 76.6 µM (top of the series)
How it was run: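 Toxicity suppression screen in FUS-yeast. Cells induced with 2% galactose, starting OD 0.005, treated 24hr at 30C with compounds at multiple final concentrations; growth by OD600.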
Potency means the concentration at half of the fitted maximal effect; tags describe the fitted curve by direction and shape.

| SMILES | Potency | growth rescue (activation) |
| --- | --- | --- |
| Cc1ccc(OCC(=O)N(Cc2ccco2)c2ccccn2)cc1 | inactive | – |
| C[C@@H]1CN([C@H](C)CO)S(=O)(=O)c2ccc(-c3ccc(C#N)cc3)cc2O[C@H]1CN(C)C(=O)Nc1cc(F)ccc1F | inconclusive: 25.1 µM [activator, partial curve, poor fit] | – |
| Cn1c(NCCCO)nc2c(c1=O)C1(CCCCC1)Cc1ccccc1-2 | inconclusive: 25.1 µM [activator, single point] | – |
| CC(=O)c1cccc(-c2ccnc3c2CC(C(=O)Nc2ccc(Cl)cc2)O3)c1 (centres undefined) | inconclusive: 35.5 µM [activator, single point] | – |
| Cc1ccc(-c2cc(-c3nnc(SCC(=O)Nc4cccc5ccccc45)n3N)[nH]n2)cc1 | inactive | – |
| COc1ccc(-c2oc3ccc(N4CCOCC4)cc3c2/C=C/c2ccc(OC)c(OC)c2)cc1 | active: 12.6 µM | – |
| CC(=O)c1cccc(NC(=O)CSc2nnnn2C2CCCC2)c1 | inconclusive: 20 µM [activator, partial curve, poor fit] | – |
| O=C(CSc1nnc(-c2ccccc2)o1)c1nnc(-c2ccccc2)o1 | inconclusive: 12.6 µM [activator, partial curve, poor fit] | – |
| Cc1cnc(C(=O)OC(C)C(=O)Nc2cccc3ccccc23)cn1 (centres undefined) | inconclusive: 50.1 µM [activator, partial curve, poor fit] | – |
| CCn1c(SCc2ccc(C(=O)Nc3nccs3)cc2)nnc1-c1ccc(N)cc1 | inconclusive: 28.2 µM [activator, partial curve, poor fit] | – |
| CCOC(=O)C1=C(C)N(C[C@@H]2CC[C@@H](Cc3ccc(-c4ccccc4)cc3)O2)C(=O)NC1c1cccc2ccccc12 (some centres undefined) | inconclusive: 28.2 µM [activator, single point] | – |
| COc1ccccc1Nc1ncc(C(=O)N2CCN(Cc3ccc(OC)c(OC)c3OC)CC2)c2ccccc12 | inconclusive: 11.2 µM [activator, partial curve] | – |
| CCNC1=C(Cl)C(=O)c2ccccc2C1=O | inactive | – |
| COc1ccc(CN2C(=O)c3cccnc3C2Nc2cc(Cl)c(OC)cc2OC)cc1 (centres undefined) | inconclusive: 35.5 µM [activator, partial curve, poor fit] | – |
| CCN1C(=O)[C@H]2[C@@H](c3ccc(-c4cccc(Cl)c4)cc3)N[C@@](C)(C(=O)OC)[C@H]2C1=O | inconclusive: 28.2 µM [activator, single point] | – |
| CCCCOc1ccc(C(=O)NC2CCCCN(CC)C2=O)cc1 (centres undefined) | inactive | – |
| O=C(COC(=O)/C=C/c1ccc(F)cc1)Nc1cccc(S(=O)(=O)N2CCCC2)c1 | inconclusive: 44.7 µM [activator, single point] | – |
| CCOc1ccccc1NC(=O)CN1C(=O)COc2ccc(S(=O)(=O)Nc3ccccc3)cc21 | inconclusive: 50.1 µM [activator, single point] | – |
| COc1ccc(C(=O)N2CCCCC2)cc1S(=O)(=O)Nc1ccccc1 | inconclusive: 5.01 µM [activator, partial curve, poor fit] | – |
| Cc1cc(C(=O)COC(=O)CC2Sc3ccccc3NC2=O)c(C)n1-c1cccc(C(F)(F)F)c1 (centres undefined) | inconclusive: 31.6 µM [activator, single point] | – |

| SMILES | Potency | growth rescue (activation) |
| --- | --- | --- |
| COc1ccc(OC)c(-c2csc(NC(=O)COC(=O)C3(C)CC3(Cl)Cl)n2)c1 (centres undefined) | inconclusive: 15.8 µM [activator, partial curve] | – |
| COC(=O)CSc1nc2sc3c(c2c(=O)n1Cc1ccccc1)CCC(C(C)(C)C)C3 (centres undefined) | inactive | – |
| CCc1ccccc1NC(=O)CSc1nc2[nH]c(=O)cc(O)c2s1 | inconclusive: 39.8 µM [activator, single point] | – |
| COc1ccc(S(=O)(=O)N(C)C[C@H]2Oc3ccc(NS(=O)(=O)c4cccs4)cc3C(=O)N([C@H](C)CO)C[C@@H]2C)cc1 | inconclusive: 15.8 µM [activator, partial curve, poor fit] | – |
| COc1ccccc1C(=O)N1c2ccccc2C(C)(c2ccc(Cl)cc2)CC1(C)C (centres undefined) | inconclusive: 20 µM [activator, partial curve, poor fit] | – |
| COC(=O)C1=C(C)NC(C)=C([N+](=O)[O-])C1c1ccccc1C(F)(F)F (centres undefined) | inactive | – |
| CC1=C(C(=O)Nc2ccccc2C)C(c2ccc(C)o2)C2=C(CCCC2=O)N1 (centres undefined) | inconclusive: 44.7 µM [activator, single point] | – |
| O=C(c1ccco1)N1CCN(c2nc(C(F)(F)F)nc3c2nnn3Cc2ccccc2)CC1 | inconclusive: 17.8 µM [activator, partial curve] | – |
| Cc1nc2ccccc2n1Cc1n[nH]c(=S)n1-c1ccc(Cl)cc1 | inactive | – |
| O=C(Nc1nc(-c2ccccn2)cs1)c1ccc(Br)s1 | inconclusive: 17.8 µM [activator, partial curve, poor fit] | – |
| O=C1C2CC=C(Cl)CC2C(=O)N1CCc1c[nH]c2ccccc12 (centres undefined) | inactive | – |
| CC(=O)c1c(C)[nH]c(C(=O)NNC(=O)COc2cc(C)ccc2C(C)C)c1C | inconclusive: 7.08 µM [activator, full curve, poor fit] | – |
| C=CCN1C=C2C(=O)C(C)(OC(=O)c3cccs3)C(=O)C=C2C=C1CCCC(=O)OC (centres undefined) | inconclusive: 25.1 µM [activator, partial curve] | – |
| C=CCc1ccccc1OCCn1c(C2CC(=O)N(Cc3ccc(F)cc3)C2)nc2ccccc21 (centres undefined) | inconclusive: 25.1 µM [activator, single point] | – |
| Cc1cc(C(F)(F)F)nc(NCc2cccnc2)n1 | – | inconclusive: 56.9% [activator] |
| CN(C)c1ccc(NC(=O)CSc2nc3ccccc3c(=O)n2C2CCCCC2)cc1 | inconclusive: 17.8 µM [activator, single point] | – |
| CCc1ccc(NS(=O)(=O)c2ccc(C)c(C(=O)N3CCOCC3)c2)cc1 | inactive | – |
| COc1ccccc1CCNC(=O)C(=O)NCC(c1cccs1)S(=O)(=O)c1ccc(F)cc1 (centres undefined) | inactive | – |
| Nc1[nH]c(C(=O)c2ccccc2)c(-c2ccc(Cl)cc2)c1C(=O)NCCc1c[nH]c2ccccc12 | inconclusive: 44.7 µM [activator, single point] | – |
